Out of some 420,000 compounds screened, about 64,000 (15%) were called active. Inconclusive results, whose numbers are uncertain, are shown with a selection of clear calls. The call rests on the fitted dose curve; in most records, active means well fitted inhibition curve with a large enough effect; inconclusive means small, poorly fitted or top-dose-only effect; inactive means flat fitted curve, though single readings scatter. Potencies of inconclusive entries are left out as doubtful fits.
assay: qHTS for Inhibitors of human tyrosyl-DNA phosphodiesterase 1 (TDP1): qHTS in cells in absence of CPT; conditions: DT40 Tdp1-/- hTDP1 cells, no CPT, ATP luminescence, 48 h; activity change, negative = growth inhibition: at 46.2 µM (top of the series) unless noted; further: nearly all actives have a fitted effect of over 55% in size
Summary of the method: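 DT40 Tdp1-/-;hTDP1 cells, no CPT (DMSO vehicle only), 400 cells/well; compounds pin-transferred; ≥48 hr, 37 °C; CellTiter-Glo 30 min RT dark, luminescence read.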
On the % scale 0 is the no-effect control and ±100 the full control effect; potency means the concentration at half of the fitted maximal effect; tags describe the fitted curve by direction and shape.

Row | Compound | Potency | activity change, negative = growth inhibition
1 | CCOc1cccc2sc(N(Cc3cccnc3)C(=O)c3ccco3)nc12 | inconclusive [inhibitor, single point] | 
2 | Cc1cc2nc(-c3ccccc3)c(CC(C)(C)C)n2c(C)c1Br | active: 18.4 µM | 
3 | c1ccc(-c2noc(CC3CCCCC3)n2)nc1 | inconclusive [inhibitor, partial curve, poor fit] | 
4 | O=C(CSc1ncnc2ccccc12)Nc1cc(S(=O)(=O)N2CCCCC2)ccc1Cl | active: 25.9 µM | 
5 | Cc1cc2nc(SCCN3CCCC3)[nH]c2cc1C |  | inconclusive: -36.6% [inhibitor]
6 | O=C(/C=C/c1ccccc1)OCCCN=C1NS(=O)(=O)c2ccccc21 | inconclusive [inhibitor, partial curve] | 
7 | C=C(C)CNC(=O)c1ccc2nc(Cc3ccc(OC)cc3)oc2c1 | inconclusive [inhibitor, partial curve, poor fit] | 
8 | O=C(Nc1ccc2c(c1)OCO2)C1CCCN(c2nc3ccccc3s2)C1 (stereo unspecified) | inconclusive [inhibitor, single point] | 
9 | CC(C)CCn1c(C(C)O)nc2ccccc21 (stereo unspecified) | inconclusive [inhibitor, single point] | 
10 | COc1ccccc1/C=C/c1nc(S(=O)(=O)c2ccccc2)c(N2CCC(C(N)=O)CC2)o1 | inconclusive [inhibitor, partial curve] | 
11 | CSC1=NC(C(Cl)(Cl)Cl)N=C(c2ccccc2)N1 (stereo unspecified) | active: 3.66 µM | 
12 | C[C@H](CO)N1C[C@H](C)[C@@H](CN(C)C(=O)Nc2ccc3c(c2)OCO3)Oc2ccc(NC(=O)NC3CCCCC3)cc2C1=O |  | inactive: -18.1%
13 | O=C(O)c1c(NC(=O)N2CCOCC2)sc2c1CCCC2 |  | inactive: 15.8%
14 | COc1ccc([C@H]2CC(=O)C=C(c3cc(C=O)ccc3OC)C2)cc1OC | inconclusive [inhibitor, single point] | 
15 | C/C(=N\NC(=O)c1ccc(N2CCCC2=O)cc1)c1ccc(O)cc1O | active: 3.66 µM | 
16 | CSc1nc2ccccc2nc1N(C)S(=O)(=O)c1ccc(C)cc1 | inconclusive [inhibitor, single point] | 
17 | CC(C)CN(C(=O)COC(=O)c1ccc2ccccc2c1)c1c(N)n(Cc2ccccc2)c(=O)[nH]c1=O | inconclusive [inhibitor, single point] | 
18 | CCc1nc2ccccc2nc1N1CCN(S(=O)(=O)c2ccccc2)CC1 | active: 16.4 µM | 
19 | CN1CCN(S(=O)(=O)c2ccc(NC(=S)NC(=O)c3ccccc3)cc2)CC1 |  | inactive: -22.5%
20 | COc1ccc(OC)c(Cc2cnc3nc(N)nc(N)c3c2C)c1 | active: 0.164 µM | 
21 | COc1ccc(-c2nnc(SCC(=O)NC(=O)Cc3ccccc3)n2C)cc1 |  | inactive: -0.306%
22 | CCN1CCCC1CNC(=O)c1ccc2c(c1)N(Cc1ccccc1F)C(=O)c1ccccc1S2(=O)=O (stereo unspecified) |  | inactive: -18.3%
23 | CC(=O)N1CCN(S(=O)(=O)c2cccc(C(=O)NC3CCCC(C)C3C)c2)CC1 (stereo unspecified) | inconclusive [inhibitor, single point] | 
24 | O=c1[nH]c(N2CCCCC2)nc2ncn(Cc3ccccc3)c12 | inconclusive [inhibitor, single point] | 
25 | CCOC(=O)C1(CC)Oc2ccccc2C(c2ccc(OC)cc2)=C1C(=O)OC (stereo unspecified) | active: 18.4 µM | 
26 | CC(=O)c1ccc(NC(=O)CN(C)S(=O)(=O)c2cc3c(cc2C)NC(=O)CO3)cc1 | inconclusive [inhibitor, partial curve] | 

Row | Compound | Potency | activity change, negative = growth inhibition
27 | CNC(=O)c1[nH]nc2c1CCc1cc(OC)ccc1-2 | inconclusive [inhibitor, single point] | 
28 | CCCOc1ccc(Br)cc1CSC(=N)N | active: 2.06 µM | 
29 | CC(C)(C)S(=O)N1Cc2cc(=O)n(Cc3ccccc3)c(CCO)c2[C@H]1CCO (stereo partly specified) | inconclusive [inhibitor, single point] | 
30 | CC1CCCC(C)N1CC(O)COCc1ccccc1 (stereo unspecified) |  | inactive: -4.47%
31 | COc1cccc(CN2CCN(C(=O)c3ccco3)CC2)c1 |  | inactive: -5.58%
32 | Cc1ccc(S(=O)(=O)Nc2cc(C(F)(F)F)ccc2N2CCOCC2)c(C)c1 | inconclusive [inhibitor, single point] | 
33 | Cc1ccc(S(=O)(=O)N2CCOCCOCCOCCOCCOCC2)cc1 |  | inactive: 16.3%
34 | CN(C)Cc1csc(NC(=O)Nc2ccccc2-c2ccccc2)n1 | inconclusive [inhibitor, single point] | 
35 | CN(C)S(=O)(=O)c1ccc(Cl)c(NC(=O)CN2CCN(c3ccccn3)CC2)c1 | active: 23.1 µM | 
36 | O=C(CSCc1c(Cl)cccc1Cl)Nc1ccccc1-c1ccccc1 | inconclusive [inhibitor, single point] | 
37 | CC1c2cc3c(cc2CCN1CC(=O)Nc1ccccc1)OCCCO3 (stereo unspecified) | active: 23.1 µM | 
38 | COCC(C)OC(=O)/C(C#N)=C\c1coc2ccc(C)cc2c1=O (stereo unspecified) | inconclusive [inhibitor, single point] | 
39 | CC(=O)Nc1ccc(S(=O)(=O)Nc2nc3ccccc3nc2-n2ccc(=NC(=O)c3ccccc3)cc2)cc1 |  | inactive: -15.7%
40 | COc1ccc(S(=O)(=O)n2nc(-c3ccc(Cl)cc3)cc2N)cc1OC | inconclusive [inhibitor, single point] | 
41 | O=C(CSc1nc(-c2ccc(Cl)cc2)cs1)Nc1cccc([N+](=O)[O-])c1 | active: 16.4 µM | 
42 | S=C(Nc1ccc(Cl)cc1)NC1CCN(Cc2ccccc2)CC1 | active: 9.2 µM | 
43 | O=c1cc(O)n(-c2ccc(F)cc2)c(=S)[nH]1 |  | inactive: -13.9%
44 | C/C(=N\NC(=O)c1ccc(O)cc1)c1ccc2c(c1)OCCO2 |  | inactive: 15.9%
45 | COc1cccc(NC(=O)C(=O)c2cn(CC(=O)N3CCOCC3)c3ccccc23)c1 | inconclusive [inhibitor, single point] | 
46 | O=C(Nc1ccc2oc(-c3cccc4c(Br)cccc34)nc2c1)c1ccc(Br)cc1 |  | inactive: -5.03%
47 | CC(C)=C(NC(=O)c1ccco1)C(=O)NCCc1nc2ccccc2[nH]1 |  | inactive: -3.68%
48 | O=C(NN=Cc1ccccc1Cl)c1ccccc1 | inconclusive [inhibitor, partial curve] | 
49 | CN(CC(=O)Nc1ccc(F)cc1)CC(=O)N1CCCCCC1 |  | inactive: 15.5%
50 | COC(=O)c1ccc(C(=O)OC)c(-n2c(=O)c3ccccc3c3ccccc3c2=O)c1 | inconclusive [inhibitor, partial curve, poor fit] | 
51 | O=c1oc2ccccc2c(Nc2cccc(O)c2)c1[N+](=O)[O-] | inconclusive [inhibitor, single point] | 
52 | O=S(=O)(NCc1cccnc1)c1ccc(Br)c2ccccc12 | inconclusive [inhibitor, single point] | 

Row | Compound | Potency | activity change, negative = growth inhibition
53 | Cc1cccc2cc(CN(Cc3ccc4c(c3)OCO4)Cc3nnnn3C3CCCC3)c(=O)[nH]c12 | active: 16.4 µM | 
54 | O=C(OCC(=O)N1CCc2ccccc21)C1=COCCO1 | inconclusive [inhibitor, partial curve, poor fit] | 
55 | CC(C)CNC(=S)NNC(=O)c1csc2ccccc12 |  | inactive: -10.9%
56 | CCOc1ccccc1C(=O)NCC(=O)N(C)Cc1cccnc1 |  | inconclusive: -30.3% [inhibitor]
57 | COC(=O)C1=C(N)Oc2cc(C)n(C)c(=O)c2C1c1ccc(Cl)cc1 (stereo unspecified) | active: 14.6 µM | 
58 | CCN(CC(N)=O)S(=O)(=O)c1ccc(Br)cc1 |  | inactive: -4.84%
59 | CC(=O)Nc1cccc(C(=O)N/N=C/c2ccc(F)cc2)c1 |  | inactive: -7.84%
60 | O=C(Nc1cc(F)ccc1F)c1cnn2c1NC(=C1CC1)C=C2C(F)F | inconclusive [inhibitor, single point] | 
61 | COc1ccc2c(c1)C1=C(CC2)C(c2ccc(C)cc2)NC(=S)N1 (stereo unspecified) | inconclusive [inhibitor, single point] | 
62 | O=Nc1c2cc(-c3ccccc3)[nH]nc-2c2ccccc12 | active: 20.6 µM | 
63 | CCOC(=O)N1CCN(C(=O)C2CCN(S(=O)(=O)c3ccc(Br)s3)CC2)CC1 | inconclusive [inhibitor, partial curve] | 
64 | CC(C)Sc1n[nH]c(=O)n1-c1ccccc1 |  | inactive: -10.5%
65 | Cc1cccc(NC(=O)CSc2nc3c(oc4ccccc43)c(=O)n2-c2ccccc2)c1C | active: 20.6 µM | 
66 | CCOc1ccc(NC(=O)COC(=O)c2cc(S(=O)(=O)N3CCCC3)ccc2C)cc1 | inconclusive [inhibitor, partial curve] | 
67 | C[C@@H](C(=O)OCn1nnc2ccccc2c1=O)N1C(=O)C2CCCCC2C1=O (stereo partly specified) |  | inactive: -6.05%
68 | Cc1ccc2nc(C3CCCN(C(=S)Nc4ccccc4C)C3)[nH]c2c1 (stereo unspecified) | active: 20.6 µM | 
69 | O=C(Cc1ccccc1[N+](=O)[O-])N1CCc2ccccc2C1 |  | inconclusive: -36.1% [inhibitor]
70 | COc1cc(NC(=O)c2ccccc2F)ccc1NC(=O)c1ccccc1Cl |  | inactive: -11.9%
71 | COc1ccc(-c2cc(C(=O)N3CC4(C)CC3CC(C)(C)C4)no2)cc1 (stereo unspecified) | inconclusive [inhibitor, single point] | 
72 | CC(C)OC(=O)c1c(-c2ccc(C(C)C)cc2)csc1NC(=O)C1CCCO1 (stereo unspecified) | active: 14.6 µM | 
73 | CCOC(=O)c1ccc(-n2c(-c3ccco3)nc3ccccc3c2=O)cc1 | active: 18.4 µM | 
74 | Cc1ccc(S(=O)(=O)NNc2ccccc2)c(C)c1 | active: 18.4 µM | 
75 | N#CCC(=O)Nc1ccc(C(=O)Nc2cccc(S(N)(=O)=O)c2)cc1 |  | inactive: -3.67%
76 | COc1ccccc1N1CCN(C2CCCN(S(=O)(=O)c3ccc(C)cc3)C2)CC1 (stereo unspecified) | inconclusive [inhibitor, single point] | 
